Data on 1 molecule can be found in patent US20250270302A1.

Some values that stand alone complete this part of the results.

This assay has as its target huGREM1 and huGREM2 15-mer library peptides covering the aligned residues GREM1 R64 and GREM2 E43 (human). The assay can be described thus: ELISA on plate-bound 15-mer peptides (0.5 µg/ml), 14-D10-2 at 2.5 µg/ml.

B1: anti-Gremlin-1 antibody 14-D10-2 (antibody, from a related filing, IgG2b, V domains shown)
VH: EVQLQQSGPELVKPGASVKISCKASGYSFTGYYMHWVKQSHGNILDWIGYFFPYNGFSNCNQKFKGKATLTVDKSSSTAYMELRSLTSEDSAVYYCARGGLGRGYFDVWGTGTTVTVSS
VL: DIQMTQSPSYLSVSLGGRVTITCKASDHINNWLAWYQQKPGNAPRLLISGATSLETGVPSRFSGSGSGKDYTLSITSLQTEDVATYYCQQYWSSPRTFGGGTKLEIK
In the case of B1, the A492 nm was 0.0925 A492 nm (huGREM1 15-mer peptide 1); 0.191 A492 nm (huGREM1 15-mer peptide 2); 0.11 A492 nm (huGREM1 15-mer peptide 3); 0.365 A492 nm (huGREM2 15-mer peptide 1); 0.206 A492 nm (huGREM2 15-mer peptide 2); 0.521 A492 nm (huGREM2 15-mer peptide 3).
